Experimental data reported in the RNAGym collection of RNA variant scans (doi:10.1093/nar/gkz1192).
Read counts are not given, so values of variants with three or more changes are uncertain.

B1: CPEB3 Ribozyme (parent)
chain: UAACAGGGGGCCACAGCAGAAGCGUUCACGUCGCAGCCCCUGUCAGAUUCUGGUGAAUCUGCGAAUUCUGCUGUAUAUCUC

Variants of: B1
Assay: self-cleavage, relative activity (ratio to wild type); higher = more cleavage; in vitro, sequencing
Summary of the method: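 Barcoded CPEB3 ribozyme mutants, produced by rounds of error-prone PCR, self-cleaved while being transcribed with T7 RNA polymerase for 5 hours at 37°C and during a subsequent 15 min DNase I step before EDTA was added. Sequencing of template-switched cDNA on Illumina gave cleaved and total reads, and DNA sequencing assigned barcodes to variants. Each variant's relative activity is its cleaved/total read fraction divided by the unmutated ribozyme's fraction, averaged across three batches. A variant needed a minimum of 5 reads.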

Row | Variant | self-cleavage
1 | C23U G33C U60C | 0.12
2 | C23A U26C U51A A56G | 0.12
3 | C23G U49C A57G U69C U78C | 0.06
4 | C23U A45U U74A | 0.24
5 | G22A U31C A45G U51A | 0.18
6 | C23A G24U U51A A56G | 0.08
7 | C23A G36C U54C U69C U80C | 0.03
8 | C23A A57G A75G | 0.12
9 | C23A A47G G63U | 0.2
10 | C23G A35U U69A U78C | 0.05
11 | G22C U54C G55A U72C | 0.08
12 | G22U C44G U58C U72G U74C | 0.03
13 | G22A U48C U69A | 0.32
14 | G22C A56U A65G | 0.14
15 | C23U A57U U58A U66A U67C | 0.09
16 | C23A A45G G52A U67C | 0.05
17 | C23A G52A U69A | 0.16
18 | G22A U54C U72C A77U | 0.11
19 | C23G C71U U72C | 0.1
20 | C23G U31A A35U U78C | 0.11
21 | C23A A56G U78A U80C | 0.05
22 | C23A U26C U31C C39U | 0.06
23 | C23A U48C U58A U69G U74C C81A | 0.05
24 | G22C U43A U48C | 0.17

Row | Variant | self-cleavage
25 | C23A U26C A45C | 0.21
26 | G22C G30A A64G U69C A75G C81A | 0.08
27 | C23U A56G A57G U69C | 0.13
28 | C23U U25C U26C | 0.12
29 | C23G G30A G63C | 0.07
30 | C23A U49A U58A U66C U72A | 0.07
31 | C23U G55A U58C | 0.08
32 | C23G A47U G52A | 0.15
33 | C23A U49C A56G U67C U78C | 0.06
34 | G22U A28G A56G U72A | 0.1
35 | C23A A56G A75U | 0.19
36 | C23U A28G A57G U72A | 0.08
37 | C23G U26A C27A U60A | 0.1
38 | C23U C38G U41A A57G | 0.12
39 | C23U A35G U67C | 0.13
40 | C23U G61C A65G U78C | 0.08
41 | C23U A35C U43C G52C U58A G63U | 0.07
42 | C23U C32U A57G G73A U78C | 0.1
43 | C23U C39A U60C U69A | 0.07
44 | C23A U26C U31A U48C | 0.05
45 | C23U A35G A45U U54C A64G U69C U80C | 0.11
46 | C23A A45G A56U U60C | 0.05
47 | C23G U31C A77G | 0.07
48 | C23U A64G U66C | 0.09

Row | Variant | self-cleavage
49 | C23U A45U U67A U69C U78C | 0.06
50 | G22C U26C A28U C34G | 0.29
51 | G22A U26C U41C U43A U49C U60G | 0.15
52 | C23G U43C U76A | 0.07
53 | G22A U26C A57G U80C | 0.08
54 | C23U C32G C38A U51C C59U | 0.05
55 | C23A A35C U72C A77G | 0.23
56 | G22A U26C U41C | 0.32
57 | C23A U54A U80C | 0.08
58 | C23U U25C U48C U58C | 0.19
59 | C23A U25C U41A U67A A75U | 0.13
60 | C23G G33U A57G U69A | 0.02
61 | G22A U41C U43A U54A U69C | 0.17
62 | C23A A35U A65G U78A | 0.01
63 | C23U A28G U31C U58C | 0.04
64 | C23A U41A A45G U60A | 0.24
65 | C23U C68A U74A U76C | 0.04
66 | G22A U26C U43C A45G | 0.15
67 | C23U A64G U67A U69C U72A U74C | 0.08
68 | C23G A45G U60C U74G | 0.09
69 | C23U C39A U48C A77G | 0.05
70 | G22U U51C A57U A64U | 0.11
71 | C23U A28G A57G U80C | 0.2
72 | C23A A28G A45G | 0.04

Row | Variant | self-cleavage
73 | C23G U25G C40A | 0.08
74 | G22C U43A U60C | 0.13
75 | C23G A35G C37U U80A | 0.07
76 | C23U U25C G36A A45U C68A U69C | 0.1
77 | C23A U31A U43C U54C A65G | 0.05
78 | C23G A28G U31C U51A C62U U74A U78C | 0.15
79 | G22U U48C U54C | 0.05
80 | C23A C39U U72A | 0.11
81 | G22A U26C U31A U54C | 0.22
82 | C23U C44U U49A U60A | 0.13
83 | C23U G55A U66C | 0.5
84 | G22U U51C U69C A77G U78C | 0.09
85 | G22U U41C U60A A64G | 0.43
86 | G22A U58C A65U A75G | 0.07
87 | C23U A45U A64G U69C U72C | 0.08
88 | G22U A35G C62A | 0.13
89 | C23G A45C U49C A56U U66C | 0.07
90 | C23U A57G U66C U74C | 0.3
91 | G22C A35U C37G A45G A77U | 0.03
92 | G22C U49C A64U U66C | 0.15
93 | C23G U48C A56G | 0.16
94 | G22A U43A U78A U80C | 0.26
95 | G22U U41C U54C | 0.09
96 | C23A U26A A64G U78A | 0.09

Row | Variant | self-cleavage
97 | C23G U43C A56U U69C | 0.11
98 | G22U A28U U67G | 0.1
99 | C23G U25C U41C U54C | 0.12
100 | C23A A35U U72A | 0.06
101 | G22A U54A A56U U67A | 0.16
102 | C23U C50G A64C | 0.13
103 | C23A U26A A35G U67C | 0.08
104 | C23U U25C A57U U60C A65U U67C | 0.06
105 | C23U A28G A35C | 0.11
106 | G22C U41C U76A | 0.09
107 | G22C A45G U78C | 0.19
108 | C23U A35U U69A | 0.06
109 | C23A C40U A47G U69A | 0.11
110 | G22C A28G A35U A47U U48C U69C U72C | 0.05
111 | C23U A47U A56U | 0.16
112 | G22A U41A A57C | 0.08
113 | C23U U25A U26A U43C U60A U76C | 0.06
114 | G22A U31C U41G U60C | 0.1
115 | C23A U43G U54A | 0.11
116 | G22U G42U U60C U78A | 0.04
117 | G22A U41G A47G U54C | 0.12
118 | C23G U49C U54C G55U A56G | 0.06
119 | G22A U41C U51C U78A | 0.09
120 | C23A U51A U72C | 0.24

Row | Variant | self-cleavage
121 | G22C A47U U69A | 0.16
122 | C23U C50A G53A G70A U72G | 0.07
123 | G22C U25C A75G | 0.07
124 | C23A G30A U51C | 0.04
125 | C23U A35G C39U | 0.96
126 | C23G U25C C38A U43A U49A U66A | 0.04
127 | C23U A45U A47G U72G | 0.1
128 | C23G U25C A64G U69A | 0.13
129 | C23A U31C U48C U51C | 0.09
130 | C23U C34U A35G A56U U72A | 0.05
131 | G22U G42C U43C G53C U69A U72C U78C | 0.05
132 | G22U A45G C68A | 0.14
133 | G22U U51C G61A U69A | 0.08
134 | C23G A57G U67C | 0.04
135 | C23U U25C A56G | 0.07
136 | C23U A28G U41C A45U U60C U74C | 0.3
137 | C23G A28G U54C G73A U76C | 0.06
138 | C23U A35G U72C | 1.09
139 | C23U C38G U69C | 0.18
140 | G22U U51C A64G U72C | 0.17
141 | C23G U25C A28C | 0.09
142 | C23G A28G U51A U72A G73A | 0.05
143 | C23U C29A U60C U67C | 0.13
144 | C23G U25C U54C U78C | 0.11

Row | Variant | self-cleavage
145 | C23G U26C A56U G70A | 0.14
146 | G22A U58C U76C | 0.13
147 | C23G U25C A45C | 0.36
148 | C23U A45G U48A U58C U78C | 0.06
149 | C23U G30A U54C U69G | 0.06
150 | G22C U41A U60C U72C | 0.13
151 | C23G U41A U43C C79G U80A | 0.06
152 | C23U A35U U60C A75U | 0.1
153 | C23U C50A U51A U67C | 0.11
154 | C23A A28G U41A A56G U72G | 0.53
155 | C23A U43C U48C U54C | 0.31
156 | C23A G36U U69C | 0.11
157 | C23U G24A U25C C27A U41A A65G | 0.09
158 | C23A G33A U43C U69C | 0.12
159 | C23G U31A U51C A56G A64G | 0.06
160 | C23G A35U A45G U48C U60C U67A | 0.24
161 | C23A A28G G33U C38U U43A U80C | 0.09
162 | C23A A64G U78A | 0.2
163 | C23A U25C A35G U78C | 0.06
164 | C23G U26A U48C | 0.11
165 | G22U U58C U66C U80A | 0.36
166 | C23G U26A U54C U60A U69G | 0.04
167 | G22U A28U U54G U72C A77U | 0.07
